Test results from PubChem BioAssay AID2069 (Sanford-Burnham Center for Chemical Genomics, 2009).
Screen size: about 1,200 compounds; about 210 (18%) were called active. Cut-off read from the data, not from the text of the source: active = inhibition above about 30%; inactive = the rest. This is a selection; strong and weak results do not stand in their true shares.

test: HTRF signal interference by compounds, confirmation, artefact control for SUMOylation inhibitor project, biochemical, uHTS (AID 2069); settings: HTRF interference counterscreen, fluorescence, at 35 µM, stronger effect = higher value

Compound	inhibition
Cn1c(=O)c2cc(NCc3ccccc3)nnc2n(C)c1=O	inactive: -0.5%
CCCCCCCC1(C)NC(=O)N(CC(=O)Nc2cc(C)on2)C1=O (configuration not stated)	inactive: -7.4%
COc1ccc(NC(=S)Nc2cccc3ccccc23)cc1OC	inactive: -11.6%
CCN1C(=O)N(CC)c2cccc3cccc1c23	inactive: -17.4%
O=C(Cc1ccccc1)Nc1nnc(-c2ccco2)s1	inactive: 13.9%
O=C(N/N=C/c1ccc(-c2ccc(Cl)c(C(=O)O)c2)o1)c1cc2c(ccc3ccccc32)o1	active: 50.7%
Cn1c(NNC(=O)c2c(F)cccc2F)cc(=O)n(C)c1=O	inactive: 1.3%
COC(=O)C1C(O)=C(C(C)=Nc2cccc3ccccc23)C(=O)CC1(C)C (configuration not stated)	inactive: 1.3%
CCCCN1Cc2c(nc3cc(-c4ccco4)[nH]n3c2=O)C1=O	active: 31.7%
COc1ccc(NCc2ccc([N+](=O)[O-])s2)c(OC)c1	inactive: -4.6%
CC(C)(C)c1ccc(C(=O)NNc2cc(N3CCOCC3)nc(N3CCOCC3)n2)cc1	inactive: -7.95%
Cc1ccc(C)c(S(=O)(=O)Nc2cc(SCC(=O)O)c(O)c3ccccc23)c1	inactive: -2.2%
CCCCOc1ccc(CSc2ncn[nH]2)cc1	inactive: -7.1%
COc1cc2c(C#N)c(N3CCCC3)nc(N)c2c(N)n1	inactive: 27.4%
O=C1CCN(c2ncccc2[N+](=O)[O-])CC1	inactive: 15.4%
CC(Nc1cccc2ccccc12)C(=O)N/N=C/c1ccccn1 (configuration not stated)	inactive: 9.55%
CC(C)NC(=S)Nc1cccc2cnccc12	inactive: 7.55%
O=C(COc1ccc(/C=N/NC(=O)c2ccc(O)cc2)cc1)Nc1ccc([N+](=O)[O-])cc1	inactive: 4.6%
c1ccc(Nc2ccccc2Nc2ccccn2)nc1	inactive: 5.5%
CCc1ccc2c(c1)C(NC(C)=O)C(=O)N2CCN1CCOCC1 (configuration not stated)	active: 30.8%
Cc1ccc(Cn2cccc(NS(C)(=O)=O)c2=O)cc1	inactive: -3.15%
Nc1c(C(=O)Nc2ccccc2)sc2nc(-c3ccco3)ccc12	active: 50.1%
O=C(CCN1C(=O)/C(=C/c2ccco2)SC1=S)Nc1ccc(C(=O)O)c(O)c1	inactive: 7.15%
COc1ccccc1/C=C/C=N/NC(=O)c1cc(-c2ccco2)[nH]n1	inactive: 1.9%
O=C(NCc1ccc(F)cc1)C(=O)c1cn(CC(=O)N2CCCC2)c2ccccc12	inactive: -5.8%
CC1=NN(c2ccccc2)C(=O)/C1=C/c1ccc(Cl)cc1	inactive: -10.2%
O=c1c2ccccc2nc2n1CCC2	active: 31.4%
